Data: PubChem BioAssay AID1745853 (National Center for Advancing Translational Sciences (NCATS), 2022)
The other results are listed elsewhere or left out. These are further read-outs of the screen, such as a control signal, another cell line or another target. No call is given for them.

Key:
Assay in all cases: Primary Screen for Target Class Profiling of Small Molecule Inhibitors of Methyltransferases
[1] = target: Glycine N-methyltransferase (Homo sapiens) (UniProt Q14749); settings: purified enzyme, MTase-Glo SAH luminescence; measured here: GNMT inhibition; at 40 µM; stronger effect = lower value
Outline: (§1)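 Each enzyme was assayed with SAM and its substrate. SAH formation detected by MTase-Glo luminescence; single-point 40 uM screen[…].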

[2] = target: Guanidinoacetate N-methyltransferase (Homo sapiens) (UniProt Q14353); settings: purified enzyme, MTase-Glo SAH luminescence; measured here: GAMT inhibition; at 40 µM; stronger effect = lower value
Outline: as §1

[3] = target: Histamine N-methyltransferase (Homo sapiens) (UniProt P50135); settings: purified enzyme, MTase-Glo SAH luminescence; measured here: HNMT inhibition; at 40 µM; stronger effect = lower value
Outline: as §1

[4] = target: Nicotinamide N-methyltransferase (Homo sapiens) (UniProt P40261); settings: purified enzyme, MTase-Glo SAH luminescence; measured here: NNMT inhibition; at 40 µM; stronger effect = lower value
Outline: as §1

[5] = target: Phenylethanolamine N-methyltransferase (Homo sapiens) (UniProt P11086); settings: purified enzyme, MTase-Glo SAH luminescence; measured here: PNMT inhibition; at 40 µM; stronger effect = lower value
Outline: as §1
% is set by controls: 0 for no effect and ±100 for the full control effect.

SMILES	activity change, negative = inhibition [1] [%]	activity change, negative = inhibition [2] [%]	activity change, negative = inhibition [3] [%]	activity change, negative = inhibition [4] [%]	activity change, negative = inhibition [5] [%]
Cc1ccc(N2C(=O)c3cc(-c4cccs4)nn3CC2(C)C(=O)NC2CCCCC2)c(C)c1 (centres undefined)	5.08	0	8.39	3.11	4.45
OC[C@H]1O[C@@H](O[C@H]2[C@H](OCCc3ccccc3)O[C@H](CO)[C@@H](O)[C@@H]2O)[C@H](O)[C@@H](O)[C@@H]1O	-4.16	-3.66	3.79	-12.6	-10.6
Clc1ccc2ncc(-c3cccc(NC4CNC4)n3)n2c1	4.43	-0.951	-39.3	-5.56	0.078
COc1cccc(CN2C(=O)c3cc(-c4ccco4)nn3CC2(C)C(=O)NC2CCCCC2)c1 (centres undefined)	-11.8	-10.4	-0.037	-16.3	-9.82
CC(C)Oc1ccc(CN2C(=O)c3cc4occc4n3CC2(C)C(=O)NC2CCCCCCC2)cc1 (centres undefined)	-1.48	0	7.59	-4.84	-1.15
Cn1nnnc1C1CCCN(C(=O)c2ccc(F)cc2)C1 (centres undefined)	-0.779	-0.578	1.19	-1.71	-3.22
CC1CN(S(=O)(=O)c2ccc3[nH]c4c(c3c2)CCCC4)c2ccccc2O1 (centres undefined)	12.2	6.02	9.97	-5.5	6.15
CN(C)C(=O)CN1CCCC(N2CCN(c3cccc(C(F)(F)F)c3)CC2)C1 (centres undefined)	-9.45	-18.2	-3.39	-13.7	-11.5
CC1CCCN1C(=O)c1cc(-c2cnn(C(C)C)c2)nc2cc(F)ccc12 (centres undefined)	-6.9	-14.1	-6.19	-22.4	-17.8
CC(C)(C)NCC(O)COc1cccc2[nH]c(=O)[nH]c12 (centres undefined)	-6.58	3.57	-1.02	-7.97	-1.65
CC(C)Oc1cccc(-c2nnc(CCC(=O)NCCc3cccs3)c(=O)[nH]2)c1	-8.09	-5.56	-6.5	-11.1	-4.26
CN(Cc1ccc(F)cc1)C(=O)c1cn(Cc2ccccc2C(F)(F)F)nn1	-4.94	-7.34	-1.07	-15	-16.4
O=C(O)c1ccccc1NC(=O)N1CCC(c2ccccc2C(F)(F)F)CC1	-4.4	-3.77	7.92	-24.3	-4.02
CCc1ccc(S(=O)(=O)c2nnn3c2nc(NCc2ccccc2)c2ccccc23)cc1	3.12	2.74	2	-1.96	-0.291
COc1ccc(OC)c(CCN2C(=O)c3cc4occc4n3CC2(C)C(=O)NC2CCCCCC2)c1 (centres undefined)	-8.85	0.633	-6.62	-6.79	-7.71
Cc1cccc(CN2CC(Oc3cccc(C(=O)NCC4CC4)c3)C2)c1	-11.5	-18.5	-11.5	-22.4	-16.6
CCN(CC)CCNc1ccc2ncn3c4ccc(O)cc4c(=O)c1c23		7.02		-27.5	-13.6
Cc1ccc(C)c(OCC(=O)N[C@H]2CCOC[C@H]2C2CCOCC2)c1C	-1.24	-0.419	-0.008	1.11	-3.07
COC(=O)C[C@H]1[C@]2(C)C3=C(C)[C@H](c4ccoc4)C[C@H]3O[C@@H]2[C@H](OC(C)=O)C2[C@](C)(C(=O)OC)C=CC(=O)[C@@]21C (some centres undefined)	3.78	2.54	7.53	-9.84	-2.17

SMILES	activity change, negative = inhibition [1] [%]	activity change, negative = inhibition [2] [%]	activity change, negative = inhibition [3] [%]	activity change, negative = inhibition [4] [%]	activity change, negative = inhibition [5] [%]
Cc1cn([C@H]2C[C@H](O)[C@@H](CO)O2)c(=O)nc1N		9.49		-8.35	1.99
O=C(c1ccccc1OC(F)(F)F)N1CCC(c2n[nH]c(=O)n2-c2ccccc2)CC1	-1.37	1.74	1.12	-0.909	2.03
CC1CCC(NC(=O)C2(C)Cc3ccccc3C(=O)N2CCc2ccccc2)CC1 (centres undefined)	-8.24	-0.288	-7.77	-4.36	-11.5
Cc1ccc2c(c1)c(-n1cccc1)c1n2CC(C)(C(=O)NC2CCCCCC2)N(Cc2ccco2)C1=O (centres undefined)	-11.7	-3.96	2.48	-5.88	-4.39
Cc1ccc(C(=O)Cn2nc3n(CC(C)C)c(=O)c4ccc(C(=O)NCC(C)C)cc4n3c2=O)c(C)c1	4.38	2.23	7.01	0.587	2.51
CCCS(=O)(=O)N1C[C@@H]2C(=O)N(CCC3CCN(C(C)C)CC3)C(=O)[C@@H]2C1	-1.74	-1.89	-5.48	-4.42	2.73
O=C(Cc1ccccn1)NCCNC(=O)c1cccc(-c2ccc(C(F)(F)F)cc2)c1	-0.74	-0.072	0.781	0.48	0.646
Cc1ccc(CNC(=O)C2(C)Cc3ccccc3C(=O)N2Cc2ccc(C(F)(F)F)cc2)cc1 (centres undefined)	15.7	3.24	13.2	6.19	9.82
CCOc1ccccc1NC(=O)N1Cc2c(sc3c2CCCC3)-n2cccc2C1c1ccc(F)cc1 (centres undefined)	2.36	2.25	7.44	-0.243	6.75
Clc1ccc(N2CCN(Cc3cc4ccccn4n3)CC2)cc1	-3.3	10.1	9.26	-8.63	5.18
O=C(O)C1=CCCN(CCON=C(c2ccccc2)c2ccccc2)C1	-11.8	2.11	-2.87	-14.1	2.98
O=C1N(C2CCN(S(=O)(=O)c3cnc[nH]3)CC2)C(c2ccccc2)C12CCCC2 (centres undefined)	-24	-11.3	-5.31	-21.9	-5.84
COc1cccc(NC(=O)C2(C)CCc3cnc(NCc4ccccc4)nc32)c1 (centres undefined)	-21.9	-14.3	-8.44	-26.7	-15.8
CN1C(=O)c2cc(C(=O)NCCN3CCCCC3)nn2CC1(C)C(=O)NCc1ccccc1 (centres undefined)	-1.1	3.94	-1.28	3.81	2.85
O=C(N[C@H](c1ccccn1)C1CC(O)C1)c1cc(=O)n(-c2ccccc2)[nH]1 (some centres undefined)	-4.58	-4.53	-0.615	-2.99	9.1
COc1cc(OC)c(C(=O)/C=C/c2ccccc2)c2c1C=CC(C)(C)O2		-28.4		-26	-8.98
CCc1cc2c(cc3n2CC(C)(C(=O)NC2CCCCCC2)N(Cc2cccs2)C3=O)s1 (centres undefined)	1.92	0	4.34	-10.4	-0.375
O=C(O[C@H]1[C@@H]2C[C@@H]3OC[C@](O)([C@@H]1Cl)[C@H]2C(O[C@@H]1O[C@H](CO)[C@@H](O)[C@H](O)[C@H]1O)O3)c1ccc(O)c(O)c1 (some centres undefined)	2.03	3.96	9.63	-6.44	0.192
Fc1ccc(CN2CCC(Nc3ccc(C(F)(F)F)nn3)CC2)cc1F	-0.491	-6.35	-3.73	-19.7	-8.28
